Target: hGPR83_del17-60, N-terminal deletion variant of human GPR83, Flag-tagged (sandwich ELISA construct) (human, UniProt Q9NYM4 17-423, del17-60)
Experiment: cell-based or functional assay

UniProt Q9NYM4, sequence (Q9NYM4 61-423, stated change not applied): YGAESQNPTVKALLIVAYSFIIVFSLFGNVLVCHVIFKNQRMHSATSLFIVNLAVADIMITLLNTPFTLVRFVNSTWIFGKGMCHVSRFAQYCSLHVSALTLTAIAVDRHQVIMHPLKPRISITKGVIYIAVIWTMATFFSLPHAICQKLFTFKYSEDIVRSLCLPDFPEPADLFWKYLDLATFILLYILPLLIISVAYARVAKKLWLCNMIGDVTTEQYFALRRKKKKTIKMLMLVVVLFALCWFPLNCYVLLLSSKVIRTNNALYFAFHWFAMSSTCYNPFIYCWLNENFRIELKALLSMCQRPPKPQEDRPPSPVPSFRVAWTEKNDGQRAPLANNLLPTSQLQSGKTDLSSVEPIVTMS

B1: human melanocortin-3 receptor, NHA-tagged (sandwich ELISA construct) (receptor, UniProt P41968 1-323, looked up)
chain: MNASCCLPSVQPTLPNGSEHLQAPFFSNQSSSAFCEQVFIKPEVFLSLGIVSLLENILVILAVVRNGNLHSPMYFFLCSLAVADMLVSVSNALETIMIAIVHSDYLTFEDQFIQHMDNIFDSMICISLVASICNLLAIAVDRYVTIFYALRYHSIMTVRKALTLIVAIWVCCGVCGVVFIVYSESKMVIVCLITMFFAMMLLMGTLYVHMFLFARLHVKRIAALPPADGVAPQQHSCMKGAVTITILLGVFIFCWAPFFLHLVLIITCPTNPYCICYTAHFNTYLVLIMCNSVIDPLIYAFRSLELRNTFREILCGCNGMNLG
- maximum cAMP accumulation after α-MSH on co-expression of hGPR83_del17-60 with hMC3R: ~1.5 fold

Reference: publication PMC5148169, “Insights into Basal Signaling Regulation, Oligomerization, and Structural Organization of the Human G-Protein Coupled Receptor 83” (PLoS ONE, 2016)
